Results on 36 molecules are retold here after the supplement of paper PMC7266297.

One test concerns KB-3-1. Description: growth inhibition relative to DMSO control (SRB); cervical cancer cells: KB-3-1 is the parent and KB-V1 overexpresses MDR1; SRB is the sulforhodamine B stain; higher = more growth inhibition. To be noted: 1 µM; 72 h.
Another test relates to KB-V1. The description is as above. The settings on record: 1 µM; 72 h.

Counter-ions that a name gives are not always drawn. Some of the results follow. Single values are uncertain, as repeats are few or missing.
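Further: Read-out is SRB optical density at 490 nm, with the control being wells given 0.5% DMSO vehicle, and compound added one day after cells were plated.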

Regarding `Cc1ccc(Nc2c(F)cccc2Cl)c(CC(=O)O)c1` [Lumiracoxib], the growth inhibition in the test on KB-3-1 was under 0%; with KB-V1, 2.58%.

Take `COc1ccc(-c2ccc3ncc4c(c3c2)n(-c2ccc(N3CCNCC3)c(C(F)(F)F)c2)c(=O)n4C)cn1`: the growth inhibition in the test with KB-3-1 and with KB-V1 was 100% in each case.

In the case of `O=S(=O)(NCCNC/C=C/c1ccc(Br)cc1)c1cccc2cnccc12`, the figures for the growth inhibition in the test on KB-3-1 and with KB-V1 were 27.9% and 11.6%, respectively.

Turning to `C=CC(=O)Nc1cccc(Nc2nc(Nc3ccc(OCCOC)cc3)ncc2F)c1`, the growth inhibition in the test with KB-3-1 was determined as 26.1%; in the test on KB-V1 it was 24%.

`COc1ccccc1N1CCN(CCN(C(=O)C2CCCCC2)c2ccccn2)CC1`: the growth inhibition in the test on KB-3-1 and with KB-V1 was under 0% each time.

For `CN(C)CC[C@H](CSc1ccccc1)Nc1ccc(S(=O)(=O)NC(=O)c2ccc(N3CCN(Cc4ccccc4-c4ccc(Cl)cc4)CC3)cc2)cc1[N+](=O)[O-]`, the growth inhibition in the test with KB-3-1 was 30.4%; with KB-V1, 37.4%.

As for `Cc1ccc([C@@H]2O[C@H](CO)[C@@H](O)[C@H](O)[C@H]2O)cc1Cc1ccc(-c2ccc(F)cc2)s1` [Canagliflozin], the growth inhibition in the test with KB-3-1 was under 0%; in the test with KB-V1 it was 7.81%.

`Cc1cc(C)c(CNC(=O)c2cc(-c3ccc(CN4CCOCC4)cc3)cc3c2cnn3C2CCCC2)c(=O)[nH]1`: the figures for the growth inhibition in the test with KB-3-1 and in the test on KB-V1 were 15.3% and 24.6%, respectively.

For the molecule `Nc1nc(Nc2ccc(S(N)(=O)=O)cc2)nn1C(=O)c1c(F)cccc1F`, the results for the growth inhibition in the test with KB-3-1 and with KB-V1 were 70.6% and 44.8%, respectively.

In the case of `O=C(Nc1ccc(OC(F)(F)F)cc1)c1sccc1NCc1ccnc2ccccc12`, the growth inhibition was determined as 40.7% in the test with KB-3-1 and 30.1% in the test with KB-V1.

As to `CC(=O)[C@]1(O)Cc2c(O)c3c(c(O)c2[C@@H](O[C@H]2C[C@H](N)[C@H](O)[C@H](C)O2)C1)C(=O)c1ccccc1C3=O` [Idarubicin HCl], the growth inhibition worked out at 87% with KB-3-1 and 64% in the test on KB-V1.

As for `Cc1cccc(-c2[nH]c(C(C)(C)C)nc2-c2ccc3nccnc3c2)n1`, the growth inhibition in the test with KB-3-1 was 54.1%; in the test with KB-V1 it was 57.9%.

Take `Cc1nc(Nc2ncc(C(=O)Nc3c(C)cccc3Cl)s2)cc(N2CCN(CCO)CC2)n1` [Dasatinib]: the results for the growth inhibition in the test with KB-3-1 and with KB-V1 were 31.2% and 60.6%, respectively.

As to `Cc1ccnc2c1NC(=O)c1cccnc1N2C1CC1` [Nevirapine], the growth inhibition is 45.3% with KB-3-1 and 19.6% in the test with KB-V1.

Turning to `CCN1CCC[C@H]1CNC(=O)c1cc(S(N)(=O)=O)ccc1OC` [Levosulpiride], the figures for the growth inhibition in the test with KB-3-1 and with KB-V1 were under 0% and 17.8%, respectively.

Regarding `CCc1ccc(/C=C2/SC(=S)NC2=O)cc1`, the growth inhibition in the test on KB-3-1 and in the test on KB-V1 was under 0% in each case.

With `CN1CCN(CCOc2cc(OC3CCOCC3)c3c(Nc4c(Cl)ccc5c4OCO5)ncnc3c2)CC1` [Saracatinib (AZD0530)], the growth inhibition in the test on KB-3-1 was 32.4%; in the test on KB-V1, 30%.

As to `CCOc1ccc(Cc2cc([C@@H]3O[C@H](CO)[C@@H](O)[C@H](O)[C@H]3O)ccc2Cl)cc1` [Dapagliflozin], the growth inhibition with KB-3-1 was 23.8%; in the test with KB-V1, 10.6%.

`O=C1C(=O)N(Cc2ccc(Cl)c(Cl)c2)c2ccccc21` [Apoptosis Activator 2]: the growth inhibition in the test on KB-3-1 is under 0%; with KB-V1, 9.02%.

Take `COc1ccc(COc2cc3oc(=O)c4cc(C(C)O)ccc4c3cc2OC)cc1` (configuration not stated) [Palomid 529 (P529)]: the growth inhibition in the test on KB-3-1 was under 0%; with KB-V1, 21.5%.

`CC(C)(C)c1cnc(CSc2cnc(NC(=O)C3CCNCC3)s2)o1`: the growth inhibition with KB-3-1 is 100%; with KB-V1 it was 59%.

For `Cc1ccc([N+](=O)[O-])cc1S(=O)(=O)N(C)/N=C/c1cnc2ccc(Br)cn12`, the values for the growth inhibition with KB-3-1 and in the test with KB-V1 were 99.4% and 98.4%, respectively.

Turning to `CN(C)C(=O)C(CCN1CCC(O)(c2ccc(Cl)cc2)CC1)(c1ccccc1)c1ccccc1` [Loperamide HCl], the growth inhibition in the test on KB-3-1 was 27.8%; with KB-V1, 9.26%.

In the case of `NC(=O)c1ccc(I)c([N+](=O)[O-])c1` [Iniparib (BSI-201)], the values for the growth inhibition in the test with KB-3-1 and in the test on KB-V1 were 11% and 18.9%, respectively.

Consider `O=C(/C=C\n1cnc(-c2cc(C(F)(F)F)cc(C(F)(F)F)c2)n1)NNc1cnccn1`, for which the growth inhibition in the test on KB-3-1 is 31.5%; in the test with KB-V1, 15.5%.

As to `CCCS(=O)(=O)Nc1ccc(F)c(C(=O)c2c[nH]c3ncc(-c4ccc(Cl)cc4)cc23)c1F` [Vemurafenib (PLX4032, RG7204)], the growth inhibition in the test on KB-3-1 is 10.2%; with KB-V1, 33.7%.

Turning to `CNC(=O)c1ccc(-c2cnc3ncc(Cc4ccc5ncccc5c4)n3n2)cc1F`, the growth inhibition is 15.1% in the test with KB-3-1 and 49.9% with KB-V1.

In the case of `COC(=O)N[C@H](C(=O)N1CCC[C@H]1c1ncc(-c2ccc(-c3ccc(-c4cnc([C@@H]5CCCN5C(=O)[C@@H](NC(=O)OC)C(C)C)[nH]4)cc3)cc2)[nH]1)C(C)C`, the growth inhibition in the test with KB-3-1 is 33%; in the test on KB-V1 it was 18%.

As for `COc1cc(Nc2ncc(F)c(Nc3ccc4c(n3)NC(=O)C(C)(C)O4)n2)cc(OC)c1OC`, the figures for the growth inhibition with KB-3-1 and in the test on KB-V1 were under 0% and 25.2%, respectively.

Turning to `Clc1ccc2nsnc2c1NC1=NCCN1` [Tizanidine HCl], the growth inhibition in the test with KB-3-1 stood at 12.4%; in the test on KB-V1, 35.2%.

For the molecule `CC1(COc2ccc3c(c2)ncn3-c2ccc3cccc(N4CCC(N)CC4)c3n2)COC1`, the results for the growth inhibition with KB-3-1 and in the test on KB-V1 were under 0% and 9.38%, respectively.

For `Cc1c(Cl)cccc1Nc1ccccc1C(=O)O` [Tolfenamic Acid], the values for the growth inhibition in the test on KB-3-1 and in the test on KB-V1 were 49.3% and 21.6%, respectively.

For `Cc1cccc(Nc2cc(Cl)nc(SCC(=O)O)n2)c1C`, the growth inhibition in the test on KB-3-1 came out at 59.8%; in the test with KB-V1, 4.32%.

In the case of `CC(C)[C@H]1C(=O)N[C@@H](CCCNC(=N)N)C(=O)NCC(=O)N[C@@H](CC(=O)O)C(=O)N[C@H](Cc2ccccc2)C(=O)N1C` [Cilengitide], the growth inhibition in the test on KB-3-1 turned out to be 36.2%; with KB-V1, 46.6%.

As for `CC(C)(C)Cn1c(N)nc2ccc(-c3[nH]c(C(C)(C)C)nc3-c3ccc(F)cc3)nc21`, the figures for the growth inhibition in the test on KB-3-1 and in the test on KB-V1 were 29.7% and 23.4%, respectively.

In the case of `COc1ccc(C[C@H](NC(=O)[C@H](C)NC(=O)CN2CCOCC2)C(=O)N[C@@H](Cc2ccccc2)C(=O)[C@@]2(C)CO2)cc1`, the growth inhibition in the test with KB-3-1 was 100%; with KB-V1 it was 38%.
